Test results from the supplement of paper PMC3334620.
The full ranking holds about 33,000 sequences; the median of “E-score (-0.5 to 0.5)” is about -0.011, and the highest 2% start at about 0.28. Some of the results follow.

The sequences below were run against T1, Gcr1 (UniProt P07261) (assay: PBM E-score (8-mer binding enrichment) (E-score (-0.5 to 0.5)); higher = stronger / more preferred TF binding; most listed sequences are background and not binding sites). Conditions: protein concentration: 100 nM; construct: GST-full length.
T1 sequence: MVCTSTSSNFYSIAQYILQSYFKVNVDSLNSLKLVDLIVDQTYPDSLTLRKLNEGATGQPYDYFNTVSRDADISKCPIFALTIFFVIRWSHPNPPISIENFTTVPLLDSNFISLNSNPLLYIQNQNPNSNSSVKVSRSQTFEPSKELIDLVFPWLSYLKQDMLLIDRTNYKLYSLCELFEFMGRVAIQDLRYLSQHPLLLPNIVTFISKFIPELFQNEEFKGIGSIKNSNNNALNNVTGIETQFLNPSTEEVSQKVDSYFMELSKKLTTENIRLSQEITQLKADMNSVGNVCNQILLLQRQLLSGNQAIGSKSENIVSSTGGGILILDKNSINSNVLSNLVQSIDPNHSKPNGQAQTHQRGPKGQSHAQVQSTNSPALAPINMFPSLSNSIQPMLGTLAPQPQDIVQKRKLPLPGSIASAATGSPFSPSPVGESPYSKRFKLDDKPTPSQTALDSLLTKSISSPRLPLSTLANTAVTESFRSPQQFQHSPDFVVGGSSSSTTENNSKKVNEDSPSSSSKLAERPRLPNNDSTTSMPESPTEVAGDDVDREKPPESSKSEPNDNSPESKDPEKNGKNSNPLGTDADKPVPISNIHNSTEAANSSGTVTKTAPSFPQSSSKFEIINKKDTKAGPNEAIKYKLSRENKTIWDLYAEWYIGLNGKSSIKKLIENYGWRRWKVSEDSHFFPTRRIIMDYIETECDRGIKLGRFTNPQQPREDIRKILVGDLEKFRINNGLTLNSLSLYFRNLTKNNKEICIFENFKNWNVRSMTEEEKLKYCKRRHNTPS
Method in brief: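 The E-score, a modified Wilcoxon-Mann-Whitney statistic, was computed by the Universal PBM Analysis Suite for every ungapped eight-base word pooled with its reverse complement. Scans behind it were normalised with masliner after bound GST-tagged yeast transcription factors were detected with fluorescent anti-GST. The proteins, at about 100-200 nM, had been applied to universal all-10-mer Agilent arrays made double-stranded by primer extension.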

Sequence | PBM E-score
GGGCTAAA | 0.00675
ATCTCGAG | 0.0916
CGGGTTTA | 0.0611
AGCGGGGA | 0.113
ACACCGCT | -0.108
CACCTACC | -0.259
CAGAAAAA | 0.124
CCAACAGA | 0.147
CCTACGCG | -0.124
AGTGCTCG | -0.14
GCTAGGAA | 0.0555
AAATTTCT | 0.0745
CCTATGCA | -0.218
ACACTTCG | 0.00571
CACAGAGG | -0.185
GGACCTAC | 0.0651
CCTGGCCG | -0.154
CTCGTGAC | -0.0369
ACGACCAA | -0.188
AATTTAAA | 0.2
AGGTAATG | -0.0574
GCTTGGAA | -0.114
CTGTTAGC | -0.0708
GCGGGAGA | -0.277

Sequence | PBM E-score
TCATCCAA | -0.114
AATGAACT | 0.148
GCAATTGA | 0.0844
GCCTGCGA | -0.209
CGCTTTAC | -0.0725
AACGGGGA | -0.00775
GCCAAGGA | -0.1
CGTGTTTA | 0.0454
CGCGGACA | -0.0906
CGCGCGCC | -0.0109
CAAAACGC | 0.025
AGATTGAG | 0.0698
GGAAGTGA | 0.173
CAATCACC | -0.275
AAGATGAC | -0.09
CACACGGC | 0.0286
AAAGATGA | 0.0521
CAGTATAG | 0.0323
ACTAAATC | 0.0396
GACACCGC | -0.228
CGTTTTTC | 0.178
CCGCAGAC | -0.0439
ATTAAGGG | 0.0551
CCAAGGCG | 0.0109

Sequence | PBM E-score
ACAGAGGC | -0.138
ATAAGTAC | 0.202
CCCGCAAG | -0.181
ACACCGCA | 0.00028
AATTTTTA | 0.00173
AACACCCG | 0.0409
AATTAGGA | 0.315
GAGTCAAC | -0.142
AAGGATAT | 0.0233
AAGAAGGA | 0.0473
TGAGTGCA | -0.161
ATGCGCAC | 0.0561
CTTCGACA | -0.00509
ACTAGTAG | 0.114
AGAACGAT | 0.0462
CTTGAAAC | 0.054
GCGTGTCA | 0.0176
GCCCGGGC | 0.21
ACTCCAGA | 0.132
CACTCTTA | 0.0417
GACACCTC | 0.0232
AAATGTCA | -0.0523
GAGAGTGA | -0.261
ACGGAGAG | -0.132

Sequence | PBM E-score
TACTAAAA | 0.103
TCCTCACA | 0.0112
ACCCGTCT | 0.00325
AGGTCTCA | -0.195
ATCGTACA | 0.0291
CATCCTAG | 0.171
AGGAAGAG | -0.0854
ACACTCTA | 0.0457
CGGAATAC | 0.0977
GACCGGAA | 0.151
CATCCATG | 0.0181
TGTCGGAA | 0.032
GATCGCCA | 0.0101
ATTTTTTA | 0.278
AATGTATG | 0.0141
AGCCCGCG | 0.00633
CCGAACGA | -0.192
GGGAAACA | 0.0935
CCTGAGGC | -0.0624
CCAGCCCA | -0.156
AGGGCGAA | -0.0562
AAAGCGTG | -0.239
